# Assay results from the supplement of paper PMC8728848.
# The list shows a part of the results.
# Columns and labels:
# Assay in all cases: glycan array binding signal (z-score within array); higher = stronger binding
# Conditions in all cases: glycan notation: IUPAC condensed, linker removed; mutation: H59Q
# [1] = molecular target: Fuc(a1-2)[GalNAc(b1-3)]Gal
# How it was run: (§1)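 Glycan array data came from 3228 arrays in the Consortium for Functional Glycomics database, and only arrays with an available protein sequence were kept. Glycan names were put into IUPAC-condensed notation, and columns mapping to the same glycan were averaged. The binding signal is a within-array Z-score, averaged across arrays of one protein sequence run at different concentrations or buffers and across linkers. A negative Z-score can be read as non-binding.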
# Fuc(a1-3)GlcNAc = molecular target: Fuc(a1-3)GlcNAc
# How it was run: as §1
# [2] = molecular target: Fuc(a1-3)[Gal(b1-4)]Glc6S
# How it was run: as §1
# [3] = molecular target: Fuc(a1-3)[Gal(b1-4)]GlcNAc
# How it was run: as §1
# [4] = molecular target: Fuc(a1-3)[Gal(b1-4)]GlcNAc(b1-2)Man
# How it was run: as §1
# [5] = molecular target: Fuc(a1-3)[Gal(b1-4)]GlcNAc(b1-2)Man(a1-3)[Fuc(a1-3)[Gal(b1-4)]GlcNAc(b1-2)Man(a1-6)]Man(b1-4)GlcNAc(b1-4)GlcNAc
# How it was run: as §1
# [6] = molecular target: Fuc(a1-3)[Gal(b1-4)]GlcNAc(b1-2)Man(a1-3)[Fuc(a1-3)[Gal(b1-4)]GlcNAc(b1-2)Man(a1-6)]Man(b1-4)GlcNAc(b1-4)[Fuc(a1-6)]GlcNAc
# How it was run: as §1
# [7] = molecular target: Fuc(a1-3)[Gal(b1-4)]GlcNAc(b1-3)Gal(b1-3)[Fuc(a1-4)]GlcNAc
# How it was run: as §1
# [8] = molecular target: Fuc(a1-3)[Gal(b1-4)]GlcNAc(b1-3)Gal(b1-4)[Fuc(a1-3)]GlcNAc
# How it was run: as §1
# [9] = molecular target: Fuc(a1-3)[Gal(b1-4)]GlcNAc(b1-3)Gal(b1-4)[Fuc(a1-3)]GlcNAc(b1-3)Gal(b1-4)[Fuc(a1-3)]GlcNAc
# How it was run: as §1
# [10] = molecular target: Fuc(a1-3)[Gal(b1-4)]GlcNAc(b1-3)GalNAc
# How it was run: as §1
# [11] = molecular target: Fuc(a1-3)[Gal(b1-4)]GlcNAc(b1-6)GalNAc
# How it was run: as §1
# [12] = molecular target: Fuc(a1-3)[Gal(b1-4)]GlcNAc(b1-6)[Gal(b1-3)GlcNAc(b1-3)]Gal(b1-4)Glc
# How it was run: as §1
# [13] = molecular target: Fuc(a1-3)[Gal(b1-4)]GlcNAc6S
# How it was run: as §1
# [14] = molecular target: Fuc(a1-3)[Gal3S(b1-4)]Glc
# How it was run: as §1
# [15] = molecular target: Fuc(a1-3)[Gal3S(b1-4)]GlcNAc
# How it was run: as §1
# [16] = molecular target: Fuc(a1-3)[Gal3S(b1-4)]GlcNAc6S
# How it was run: as §1
# [17] = molecular target: Fuc(a1-3)[GalNAc(b1-4)]GlcNAc
# How it was run: as §1
# [18] = molecular target: Fuc(a1-3)[GalNAc(b1-4)]GlcNAc6S
# How it was run: as §1
# Fuc(a1-4)GlcNAc = molecular target: Fuc(a1-4)GlcNAc
# How it was run: as §1
# Fuc(b1-3)GlcNAc = molecular target: Fuc(b1-3)GlcNAc
# How it was run: as §1
# Gal(a1-2)Gal = molecular target: Gal(a1-2)Gal
# How it was run: as §1
# Gal(a1-3)Gal = molecular target: Gal(a1-3)Gal
# How it was run: as §1
# Gal(a1-3)Gal(b1-3)GlcNAc = molecular target: Gal(a1-3)Gal(b1-3)GlcNAc
# How it was run: as §1
# [19] = molecular target: Gal(a1-3)Gal(b1-3)GlcNAc(b1-2)Man
# How it was run: as §1
# [20] = molecular target: Gal(a1-3)Gal(b1-3)GlcNAc(b1-2)Man(a1-3)[Gal(a1-3)Gal(b1-3)GlcNAc(b1-2)Man(a1-6)]Man(b1-4)GlcNAc(b1-4)GlcNAc
# How it was run: as §1
# [21] = molecular target: Gal(a1-3)Gal(b1-3)GlcNAc(b1-3)GalNAc
# How it was run: as §1
# [22] = molecular target: Gal(a1-3)Gal(b1-3)GlcNAc(b1-6)GalNAc
# How it was run: as §1
# [23] = molecular target: Gal(a1-3)Gal(b1-3)[Fuc(a1-4)]GlcNAc(b1-2)Man(a1-3)[Gal(a1-3)Gal(b1-3)[Fuc(a1-4)]GlcNAc(b1-2)Man(a1-6)]Man(b1-4)GlcNAc(b1-4)GlcNAc
# How it was run: as §1
# Gal(a1-3)Gal(b1-4)Glc = molecular target: Gal(a1-3)Gal(b1-4)Glc
# How it was run: as §1
# Gal(a1-3)Gal(b1-4)GlcNAc = molecular target: Gal(a1-3)Gal(b1-4)GlcNAc
# How it was run: as §1
# [24] = molecular target: Gal(a1-3)Gal(b1-4)GlcNAc(b1-2)Man
# How it was run: as §1
# [25] = molecular target: Gal(a1-3)Gal(b1-4)GlcNAc(b1-2)Man(a1-3)[Gal(a1-3)Gal(b1-4)GlcNAc(b1-2)Man(a1-6)]Man(b1-4)GlcNAc(b1-4)GlcNAc
# How it was run: as §1
# [26] = molecular target: Gal(a1-3)Gal(b1-4)GlcNAc(b1-3)GalNAc
# How it was run: as §1
# [27] = molecular target: Gal(a1-3)Gal(b1-4)GlcNAc(b1-6)GalNAc
# How it was run: as §1
# [28] = molecular target: Gal(a1-3)Gal(b1-4)[Fuc(a1-3)]GlcNAc
# How it was run: as §1
# [29] = molecular target: Gal(a1-3)Gal(b1-4)[Fuc(a1-3)]GlcNAc(b1-2)Man(a1-3)[Gal(a1-3)Gal(b1-4)[Fuc(a1-3)]GlcNAc(b1-2)Man(a1-6)]Man(b1-4)GlcNAc(b1-4)GlcNAc
# How it was run: as §1
# Gal(a1-3)GalNAc = molecular target: Gal(a1-3)GalNAc
# How it was run: as §1
# [30] = molecular target: Gal(a1-3)[Gal(a1-4)]Gal(b1-4)GlcNAc
# How it was run: as §1
# [31] = molecular target: Gal(a1-4)Gal(b1-3)GlcNAc(b1-2)Man(a1-3)[Gal(a1-4)Gal(b1-3)GlcNAc(b1-2)Man(a1-6)]Man(b1-4)GlcNAc(b1-4)GlcNAc
# How it was run: as §1
# Gal(a1-4)Gal(b1-4)Glc = molecular target: Gal(a1-4)Gal(b1-4)Glc
# How it was run: as §1
# Gal(a1-4)Gal(b1-4)GlcNAc = molecular target: Gal(a1-4)Gal(b1-4)GlcNAc
# How it was run: as §1
# [32] = molecular target: Gal(a1-4)Gal(b1-4)GlcNAc(b1-2)Man(a1-3)[Gal(a1-4)Gal(b1-4)GlcNAc(b1-2)Man(a1-6)]Man(b1-4)GlcNAc(b1-4)GlcNAc
# How it was run: as §1
# [33] = molecular target: Gal(a1-4)Gal(b1-4)GlcNAc(b1-3)Gal(b1-4)Glc
# How it was run: as §1
# Gal(a1-4)GlcNAc = molecular target: Gal(a1-4)GlcNAc
# How it was run: as §1
binder,measurement,setting,value
"rAAL-H59Q (Agrocybe aegerita), Q6WY08 (protein) MQGVNIYNISAGTSVDLAAPVTTGDIVTFFSSALNLNAGAGNPNNTTLNLFAENGAYLLQIAFRLQENVIIFNSRQPDGPWLVEQRVSDVANQFAGIDGKAMVTVFDHGDKYQVVINEKTVIQYTKQISGLTLSLSYNATEETSIFSTVVEAVTYTGLALEHHHHHH",glycan array binding signal (z-score),[1],-0.062
same,glycan array binding signal (z-score),Fuc(a1-3)GlcNAc,-0.127
same,glycan array binding signal (z-score),[2],-0.092
same,glycan array binding signal (z-score),[3],-0.072
same,glycan array binding signal (z-score),[4],-0.099
same,glycan array binding signal (z-score),[5],-0.108
same,glycan array binding signal (z-score),[6],0
same,glycan array binding signal (z-score),[7],-0.096
same,glycan array binding signal (z-score),[8],-0.091
same,glycan array binding signal (z-score),[9],-0.156
same,glycan array binding signal (z-score),[10],-0.074
same,glycan array binding signal (z-score),[11],-0.126
same,glycan array binding signal (z-score),[12],-0.045
same,glycan array binding signal (z-score),[13],0.026
same,glycan array binding signal (z-score),[14],-0.044
same,glycan array binding signal (z-score),[15],-0.078
same,glycan array binding signal (z-score),[16],-0.128
same,glycan array binding signal (z-score),[17],-0.044
same,glycan array binding signal (z-score),[18],-0.05
same,glycan array binding signal (z-score),Fuc(a1-4)GlcNAc,-0.056
same,glycan array binding signal (z-score),Fuc(b1-3)GlcNAc,-0.053
same,glycan array binding signal (z-score),Gal(a1-2)Gal,-0.11
same,glycan array binding signal (z-score),Gal(a1-3)Gal,-0.084
same,glycan array binding signal (z-score),Gal(a1-3)Gal(b1-3)GlcNAc,-0.068
same,glycan array binding signal (z-score),[19],-0.107
same,glycan array binding signal (z-score),[20],-0.06
same,glycan array binding signal (z-score),[21],-0.039
same,glycan array binding signal (z-score),[22],-0.04
same,glycan array binding signal (z-score),[23],-0.014
same,glycan array binding signal (z-score),Gal(a1-3)Gal(b1-4)Glc,-0.07
same,glycan array binding signal (z-score),Gal(a1-3)Gal(b1-4)GlcNAc,-0.079
same,glycan array binding signal (z-score),[24],-0.106
same,glycan array binding signal (z-score),[25],-0.009
same,glycan array binding signal (z-score),[26],-0.116
same,glycan array binding signal (z-score),[27],-0.109
same,glycan array binding signal (z-score),[28],-0.116
same,glycan array binding signal (z-score),[29],0.052
same,glycan array binding signal (z-score),Gal(a1-3)GalNAc,-0.094
same,glycan array binding signal (z-score),[30],-0.065
same,glycan array binding signal (z-score),[31],-0.065
same,glycan array binding signal (z-score),Gal(a1-4)Gal(b1-4)Glc,-0.112
same,glycan array binding signal (z-score),Gal(a1-4)Gal(b1-4)GlcNAc,0.035
same,glycan array binding signal (z-score),[32],-0.074
same,glycan array binding signal (z-score),[33],-0.057
same,glycan array binding signal (z-score),Gal(a1-4)GlcNAc,-0.091
